The assay has as its system influenza A/PuertoRico/8/34 (H1N1). As to the kind of experiment: Activity against the influenza virus, virus titer reduction in MDCK cells (hemagglutination). As to conditions: for IC50: Influenza A virus, H1N1, MDCK; for SI (selectivity index): ratio of CC50 to IC50.
Setting [1] is: MDCK cells, influenza A/PuertoRico/8/34 (H1N1), MOI 0.01, mean±SD, read-out: IC50 (A, H1N1).

Values after ≈ are worked out from the molar mass of the structure shown. Like-named read-outs stand apart in the source and are kept apart here.

Regarding `CCOC(=O)c1c(N(Cc2ccccc2)C(C)=O)sc2c(Cl)c(O)ccc12` [Example 1, Ethyl 2-[acetyl(benzyl)amino]-7-chloro-6-hydroxy-1-benzothiophene-3-carboxylate], the “SI (selectivity index)” value stood at 45. In addition, the IC50 under setting [1] was 6.7 ± 1.1 µg/mL (≈ 16.6 µM).

For the compound `CCOC(=O)c1c(N(Cc2ccccc2)C(C)=O)sc2cc(O)ccc12` [Example 2, Ethyl 2-[acetyl(benzyl)amino]-6-hydroxy-1-benzothiophene-3-carboxylate], the “SI (selectivity index)” value is listed as 23. Further, the IC50 under setting [1] turned out to be 0.5 ± 0.7 µg/mL (≈ 1.35 µM).

On to `COC(=O)c1c(N(Cc2ccccc2)C(C)=O)sc2cc(O)ccc12` [Example 4, Methyl 2-[acetyl(benzyl)amino]-6-hydroxy-1-benzothiophene-3-carboxylate], for which the “SI (selectivity index)” value is 600. Also, the IC50 under setting [1] amounted to 0.34 ± 0.81 µg/mL (≈ 0.957 µM).

Consider `CC(=O)N(Cc1ccccc1)c1sc2c(Cl)c(O)ccc2c1C(=O)OC(C)(C)C` [Example 5, Tert-butyl 2-[acetyl(benzyl)amino]-7-chloro-6-hydroxy-1-benzothiophene-3-carboxylate], for which the “SI (selectivity index)” value is given as 4. Besides, the IC50 under setting [1] amounted to 1 µg/mL (≈ 2.32 µM).

On to `CC(=O)N(Cc1ccccc1)c1sc2c(Cl)c(O)ccc2c1C(=O)OC(C)C` [Example 7, Isopropyl 2-[acetyl(benzyl)amino]-7-chloro-6-hydroxy-1-benzothiophene-3-carboxylate], for which the “SI (selectivity index)” value is 7. In addition, the IC50 under setting [1] stood at 0.3 ± 0.5 µg/mL (≈ 0.718 µM).

As to `CC(=O)N(Cc1ccccc1)c1sc2cc(O)ccc2c1C(=O)OC(C)C` [Example 8, Isopropyl 2-[acetyl(benzyl)amino]-6-hydroxy-1-benzothiophene-3-carboxylate], the “SI (selectivity index)” value was found to be 46. Under setting [1], the IC50 came out at 0.3 ± 0.4 µg/mL (≈ 0.782 µM).

For `CCOC(=O)c1c(N(Cc2ccccc2Cl)C(C)=O)sc2c(Cl)c(O)ccc12` [Example 9, Ethyl 2-[acetyl(2-chlorobenzyl)amino]-7-chloro-6-hydroxy-1-benzothiophene-3-carboxylate], the “SI (selectivity index)” value stood at 104. The IC50 under setting [1] came out at 0.08 ± 0.003 µg/mL (≈ 0.183 µM).

Regarding `COC(=O)c1c(N(Cc2ccccc2Cl)C(C)=O)sc2cc(O)ccc12` [Example 16, Methyl 2-[acetyl(2-chlorobenzyl)amino]-6-hydroxy-1-benzothiophene-3-carboxylate], the “SI (selectivity index)” value stood at 7. Moreover, the IC50 (read-out: IC50 (A, H1N1), MDCK cells, influenza A/PuertoRico/8/34 (H1N1), MOI 0.01, mean±SD) is less than 3 µg/mL.

For the compound `COC(=O)c1c(N(Cc2ccc(C(F)(F)F)cc2)C(C)=O)sc2c(Cl)c(O)ccc12` [Example 21, Methyl 2-[acetyl(4-trifluoromethylbenzyl)amino]-7-chloro-6-hydroxy-1-benzothiophene-3-carboxylate], the “SI (selectivity index)” value amounted to 11. Moreover, the IC50 under setting [1] came to 0.5 ± 0.9 µg/mL (≈ 1.09 µM).

For the compound `COC(=O)c1c(N(Cc2ccc(C(F)(F)F)cc2)C(C)=O)sc2cc(O)ccc12` [Example 22, Methyl 2-[acetyl(4-trifluoromethylbenzyl)amino]-6-hydroxy-1-benzothiophene-3-carboxylate], the “SI (selectivity index)” value amounted to 4. The IC50 under setting [1] stood at 0.8 ± 1.2 µg/mL (≈ 1.89 µM).

In the case of `COC(=O)c1c(N(Cc2ccccc2F)C(C)=O)sc2cc(O)ccc12` [Example 24, Methyl 2-[acetyl(2-fluorobenzyl)amino]-6-hydroxy-1-benzothiophene-3-carboxylate], the “SI (selectivity index)” value is recorded as 10. Further, under setting [1], the IC50 was 31 ± 2 µg/mL (≈ 83 µM).

Turning to `COC(=O)c1c(N(Cc2cccc(F)c2)C(C)=O)sc2c(Cl)c(O)ccc12` [Example 25, Methyl 2-[acetyl(3-fluorobenzyl)amino]-7-chloro-6-hydroxy-1-benzothiophene-3-carboxylate], the “SI (selectivity index)” value is given as 10. Moreover, under setting [1], the IC50 was determined as 2.5 ± 0.3 µg/mL (≈ 6.13 µM).

Turning to `COC(=O)c1c(N(Cc2ccc(F)cc2)C(C)=O)sc2c(Cl)c(O)ccc12` [Example 27, Methyl 2-[acetyl(4-fluorobenzyl)amino]-7-chloro-6-hydroxy-1-benzothiophene-3-carboxylate], the “SI (selectivity index)” value turned out to be 10. Under setting [1], the IC50 is 3.98 ± 0.4 µg/mL (≈ 9.76 µM).

As for `COC(=O)c1c(N(Cc2ccc(F)cc2)C(C)=O)sc2cc(O)ccc12` [Example 28, Methyl 2-[acetyl(4-fluorobenzyl)amino]-6-hydroxy-1-benzothiophene-3-carboxylate], the “SI (selectivity index)” value came out at 41. For the same compound, the IC50 under setting [1] came to 5.9 ± 0.7 µg/mL (≈ 15.8 µM).

Turning to `COC(=O)c1c(N(Cc2ccc(F)cc2F)C(C)=O)sc2c(Cl)c(O)ccc12` [Example 29, Methyl 2-[acetyl(2,4-difluorobenzyl)amino]-7-chloro-6-hydroxy-1-benzothiophene-3-carboxylate], the “SI (selectivity index)” value amounted to 16. For the same compound, the IC50 under setting [1] is 19 ± 2.1 µg/mL (≈ 44.6 µM).

As for `COC(=O)c1c(N(Cc2ccc(F)cc2F)C(C)=O)sc2cc(O)ccc12` [Example 30, Methyl 2-[acetyl(2,4-difluorobenzyl)amino]-6-hydroxy-1-benzothiophene-3-carboxylate], the “SI (selectivity index)” value is on record as 10. Moreover, the IC50 under setting [1] worked out at 30 ± 2.8 µg/mL (≈ 76.6 µM).

`COC(=O)c1c(N(Cc2cccc3ccccc23)C(C)=O)sc2cc(O)ccc12` [Example 32, Methyl 2-[acetyl(1-naphthylmethyl)amino]-6-hydroxy-1-benzothiophene-3-carboxylate]: the “SI (selectivity index)” value is recorded as 4. Moreover, under setting [1], the IC50 stood at 68 ± 8 µg/mL (≈ 168 µM).

Turning to `COC(=O)c1c(N(Cc2ccc3ccccc3c2)C(C)=O)sc2c(Cl)c(O)ccc12` [Example 33, Methyl 2-[acetyl(2-naphthylmethyl)amino]-7-chloro-6-hydroxy-1-benzothiophene-3-carboxylate], the “SI (selectivity index)” value came out at 4. Under setting [1], the IC50 amounted to 1 µg/mL (≈ 2.27 µM).

As to `COC(=O)c1c(N(CCc2ccccc2)C(C)=O)sc2cc(O)ccc12` [Example 36, Methyl 2-[acetyl(2-phenylethyl)amino]-6-hydroxy-1-benzothiophene-3-carboxylate], the “SI (selectivity index)” value is 61. Besides, under setting [1], the IC50 is 4.9 ± 0.6 µg/mL (≈ 13.3 µM).

In the case of `COC(=O)c1c(N(C(C)=O)C(C)c2ccccc2)sc2c(Cl)c(O)ccc12` (stereo not drawn) [Example 37, Methyl 2-[acetyl(1-phenylethyl)amino]-7-chloro-6-hydroxy-1-benzothiophene-3-carboxylate], the “SI (selectivity index)” value is reported as 5. Also, the IC50 under setting [1] was 4.9 ± 0.6 µg/mL (≈ 12.1 µM).

As to `COC(=O)c1c(N(C(C)=O)C(C)c2ccccc2)sc2cc(O)ccc12` (stereo not drawn) [Example 38, Methyl 2-[acetyl(1-phenylethyl)amino]-6-hydroxy-1-benzothiophene-3-carboxylate], the “SI (selectivity index)” value was determined as 4. Moreover, under setting [1], the IC50 was determined as 7.9 ± 1 µg/mL (≈ 21.4 µM).

For the compound `COC(=O)c1c(N(Cc2ccc(C(C)C)cc2)C(C)=O)sc2c(Cl)c(O)ccc12` [Example 41, Methyl 2-[acetyl(4-isopropylbenzyl)amino]-7-chloro-6-hydroxy-1-benzothiophene-3-carboxylate], the “SI (selectivity index)” value was determined as 5. For the same compound, the IC50 under setting [1] was found to be 1 µg/mL (≈ 2.32 µM).

On to `COC(=O)c1c(N(Cc2ccc(C(C)C)cc2)C(C)=O)sc2cc(O)ccc12` [Example 42, Methyl 2-[acetyl(4-isopropylbenzyl)amino]-6-hydroxy-1-benzothiophene-3-carboxylate], for which the “SI (selectivity index)” value is recorded as 3. In addition, the IC50 under setting [1] was 3 µg/mL (≈ 7.55 µM).

Turning to `CC(=O)N(Cc1ccccc1)c1sc2cc(O)ccc2c1C#N` [Example 47, N-benzyl-N-(3-cyano-6-hydroxy-1-benzothiophene-2-yl)acetamide], the “SI (selectivity index)” value amounted to 28. For the same compound, the IC50 under setting [1] was 0.6 ± 0.7 µg/mL (≈ 1.86 µM).

These data come from patent US20240174629A1 (OTCPHARM JSC, priority 2021, published 2024).
